Measured values from the supplement of paper PMC3334620.
Whole data set: some 33,000 sequences, median “E-score (-0.5 to 0.5)” near -0.036, cut for the highest 2% near 0.37. This is one part of the list.

Molecular target: T1, Yer064c (UniProt P40041)
T1 sequence: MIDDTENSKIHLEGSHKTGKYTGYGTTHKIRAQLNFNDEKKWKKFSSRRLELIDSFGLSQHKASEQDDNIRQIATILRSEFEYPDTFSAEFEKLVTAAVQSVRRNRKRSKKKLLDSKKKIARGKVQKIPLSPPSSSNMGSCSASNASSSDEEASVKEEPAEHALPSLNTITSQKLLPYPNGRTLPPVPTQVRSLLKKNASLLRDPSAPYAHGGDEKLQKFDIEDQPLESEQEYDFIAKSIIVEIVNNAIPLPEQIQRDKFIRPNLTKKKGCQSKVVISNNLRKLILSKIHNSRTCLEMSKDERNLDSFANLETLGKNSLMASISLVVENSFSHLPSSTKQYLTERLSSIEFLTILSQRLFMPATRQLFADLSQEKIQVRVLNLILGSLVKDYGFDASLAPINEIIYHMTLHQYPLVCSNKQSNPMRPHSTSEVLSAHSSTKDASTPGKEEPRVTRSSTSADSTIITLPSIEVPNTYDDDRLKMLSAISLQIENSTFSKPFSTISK
Assay: PBM E-score (8-mer binding enrichment) (E-score (-0.5 to 0.5)); higher = stronger / more preferred TF binding; most listed sequences are background and not binding sites
Settings: protein concentration: 200 nM; construct: GST-full length
How it was run: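 Universal all-10-mer Agilent arrays, double-stranded by primer extension on fresh or once-stripped slides, were probed with about 100-200 nM GST-tagged yeast transcription factors made by PURExpress. Fluorescent anti-GST detected bound protein, and masliner normalised the scans. E-scores from the Universal PBM Analysis Suite were given to each ungapped eight-base word pooled with its reverse complement.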

| Sequence | PBM E-score |
| --- | --- |
| GGTAGTAA | 0.0578 |
| GGTCGAAC | -0.00263 |
| AGATTGCG | 0.0137 |
| GCGCGCTA | -0.194 |
| GTATCTCA | 0.223 |
| CACCGTCA | 0.0302 |
| CTGGGAAA | -0.133 |
| AGTCATAA | 0.476 |
| AATCAGAC | 0.34 |
| CAGAGCTG | -0.065 |
| TCATCTAA | 0.319 |
| AGATGACA | 0.116 |
| GGAGAAAA | -0.177 |
| TATCCGGA | -0.12 |
| CCACAACG | 0.0189 |
| GCCATGCA | -0.128 |
| ATTCTTTA | 0.192 |
| CCGGGGCG | -0.174 |
| CAATCGTG | 0.0936 |
| CATCCACG | 0.0743 |
| GCCGTAAA | -0.0829 |
| ACTAGTTA | 0.229 |
| ACGGAACG | -0.0653 |
| CCTAATAC | 0.0357 |
| GTCTAGTA | 0.0336 |

| Sequence | PBM E-score |
| --- | --- |
| ATGGCTGC | -0.0318 |
| TCAGAAGA | 0.153 |
| CTTATAAA | 0.163 |
| CGCAAACA | 0.0747 |
| CAAATAGC | -0.118 |
| CTCCTGTA | 0.0484 |
| CAGTGGCC | -0.158 |
| CCCCTTGC | -0.252 |
| ACGACCGC | -0.242 |
| AAGATCAA | 0.0843 |
| GACACTAA | -0.0431 |
| CCGACTAA | 0.358 |
| ATCTATGC | -0.268 |
| TCTCGTCA | 0.046 |
| GATCTCAC | -0.0301 |
| AATTAATC | 0.35 |
| GTTGCAAA | -0.00101 |
| AATAGCCA | 0.184 |
| CTCCGCGC | -0.0845 |
| AGGGTCTC | -0.244 |
| CTGCATGC | -0.075 |
| AGTGCCTC | -0.0945 |
| CGCGATAG | -0.0145 |
| ATCGTACG | 0.0461 |
| AACAGCCC | -0.254 |

| Sequence | PBM E-score |
| --- | --- |
| GAGAACTC | 0.0416 |
| AAACGCAC | -0.113 |
| CCCAGGTA | -0.183 |
| CAATGGGC | -0.124 |
| CCCCTCGA | -0.276 |
| GCTTATAC | -0.0573 |
| TCTGGAAA | 0.139 |
| AGAGAGTA | 0.121 |
| GAGGCAAC | -0.113 |
| ACGTCCAA | -0.118 |
| GTTGGTAA | 0.104 |
| AAGGGATG | -0.176 |
| CGCTGCTA | -0.211 |
| TCCACCGA | -0.0767 |
| CGTGGAGA | -0.0815 |
| ATGAGCGG | -0.0995 |
| ACGATTCG | 0.0252 |
| GGCTTAAC | 0.0718 |
| TACTGCTA | -0.316 |
| AGGGCCCT | -0.377 |
| AAACACAT | 0.156 |
| ATCTGCTC | 0.0277 |
| AAATGACT | 0.475 |
| GCAGGTTA | -0.188 |
| ACTGCGGG | 0.0712 |

| Sequence | PBM E-score |
| --- | --- |
| ATCAGACG | -0.0527 |
| ATCCTCGG | -0.155 |
| AGTCGTAC | 0.399 |
| AGAATAGC | -0.067 |
| TGGAGCAA | -0.00037 |
| CCCAATAA | -0.0789 |
| ACGAGGGG | -0.274 |
| GCGTTGAC | 0.133 |
| AGCCATTG | 0.247 |
| AAAGTCAT | 0.455 |
| AGGACTAA | 0.405 |
| CACGAGGG | -0.294 |
| AATGTGAC | 0.203 |
| GAGCGGAA | 0.0206 |
| AGATCCAC | -0.0378 |
| ACAGGTAG | -0.24 |
| AGCAAGGA | -0.0126 |
| CGTGTGCA | -0.113 |
| AAACGCGC | -0.241 |
| CAAGTGGG | -0.0535 |
| CACCCGTC | -0.0917 |
| AAGTGTAA | 0.0413 |
| ACTCACTG | 0.374 |
| CAACGGCC | -0.172 |
| AACAACAA | 0.158 |

| Sequence | PBM E-score |
| --- | --- |
| CAATGCGA | -0.0146 |
| CGCCCAAC | -0.194 |
| ACCGCTGG | -0.264 |
| AGGGACAG | -0.198 |
| TCATTGCA | 0.0764 |
| AGAGTAAT | 0.15 |
| GAACTCGC | 0.143 |
| TCTCAACA | 0.107 |
| CCCGCGCC | -0.251 |
| ACTTCCAG | 0.0792 |
| AGTAGCCG | -0.177 |
| AGAACGTA | 0.00154 |
| AATTAGCG | 0.0109 |
| CTAGCTCC | -0.325 |
| AGGTCCGA | -0.0197 |
| GAAGAGGA | -0.18 |
| ACTCTTCT | 0.23 |
| AATGTCTC | 0.274 |
| ATTCTAAG | 0.23 |
| CCCTCCCC | -0.115 |
| AACAATGA | 0.191 |
| CCACCCCG | -0.0984 |
| CCTCAAAC | -0.0244 |
| AGACGACA | -0.061 |
| ATATCTGA | 0.117 |

| Sequence | PBM E-score |
| --- | --- |
| ACCATAAG | -0.0452 |
| GAGATTGA | 0.158 |
| ATGCCGCA | -0.107 |
| ACCTGGAA | -0.0885 |
| CATTCCCA | -0.16 |
| CAGGGATA | -0.214 |
| TTCACAAA | 0.0238 |
| GACCAAGA | -0.0826 |
| CAGACGTA | -0.117 |
| CCCAGCTA | -0.0347 |
| GCTCATCC | -0.0652 |
| AAACCGCC | 0.152 |
| ACGCCCCC | -0.35 |
| CGCACGTA | -0.124 |
| TTACCTAA | -0.0168 |
| GGGCGTAC | -0.246 |
| GAATATTA | 0.0629 |
| CCAATGCG | -0.129 |
| CTGCGGTA | 0.154 |
| ACCATTTA | 0.0913 |
| GTTGAAGA | 0.204 |
| CCACAAGG | -0.25 |
| GCGGATCC | -0.228 |
| AATTCATG | 0.0244 |
| CCACTAGC | -0.139 |

| Sequence | PBM E-score |
| --- | --- |
| CACCGATC | 0.0347 |
| CAATGCCC | -0.271 |
| ACTCACAA | 0.395 |
| AGGTGAAA | 0.0659 |
| GAACGCGC | -0.188 |
| AGAGTGGA | -0.107 |
| GCGACGAC | 0.06 |
| GAGACCTA | 0.044 |
| GCCGTTCA | -0.159 |
| CCATAGAG | -0.0229 |
| ACCACAAT | 0.186 |
| ATGCCGAC | 0.167 |
| GCCGCCGC | -0.142 |
| CTACTAAC | 0.0814 |
| ATGGGGAC | -0.14 |
| ACCTCTCA | -0.116 |
| CAAAGACG | -0.156 |
| CATGATTA | 0.453 |
| AACGCCAC | -0.241 |
| AAAGCAGC | -0.134 |
| CTCATCGA | 0.173 |
| ACTACCCG | 0.153 |
